{"source": "paper PMC7819943", "about": "“Rice protein-binding microarrays: a tool to detect cis-acting elements near promoter regions in rice”", "note": "Some of the results follow."}
{"molecular_target": "T1, OsWOX13 (Oryza sativa, UniProt Q5QMM3 1-267)", "T1 sequence": "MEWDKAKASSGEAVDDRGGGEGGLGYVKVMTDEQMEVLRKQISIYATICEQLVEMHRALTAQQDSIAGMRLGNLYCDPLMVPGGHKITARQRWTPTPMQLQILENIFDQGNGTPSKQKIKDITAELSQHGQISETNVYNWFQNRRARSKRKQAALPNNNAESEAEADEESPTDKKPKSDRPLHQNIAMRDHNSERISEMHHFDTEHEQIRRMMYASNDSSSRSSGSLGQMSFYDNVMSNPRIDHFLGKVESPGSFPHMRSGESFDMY", "assay": "protein-binding microarray (RPBM); PBS, 2% BSA, 51.3 ng/ul salmon testes DNA, 50 uM zinc acetate, 200 nM TF, 25 C, 1 h; high values mean tight binding", "settings": "protein: recombinant; tags: N-terminal polyhistidine and DsRed monomer fusion (pET32a); label: CyDye5-dUTP incorporated in the synthesized complementary strand; 3' TTTTT single-stranded linker to array surface; dsDNA, one strand shown", "outline": "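Ni–NTA purification followed expression in E. coli BL21-CodonPlus of transcription factors fused N-terminally to a polyhistidine tag and DsRed. At 200 nM in PBS with 2% BSA, salmon testes DNA and 50 µM zinc acetate, the protein was incubated for 1 h at 25 °C with a custom Agilent array that had been primer-extended with Cy5-dUTP and blocked with 2% BSA. After washing, the array was read on an Axon 4000B scanner. The binding signal is per-feature fluorescence intensity in arbitrary units.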"}
{"sequence": "GCAAAATAATAGGCTAATTTTAGTTAGTAGAGATGCACTGCGGAGTCACCTAGTGCAG", "binding signal": "9500 fluorescence intensity (a.u.)"}
{"sequence": "TCTTGAAATTTTGACAGGAACACAAAGGGCAGAGCATAGCCGGAGTCACCTAGTGCAG", "binding signal": "3430 fluorescence intensity (a.u.)"}
{"sequence": "AGAAATTGAATTGCTTGCTACAGAGAAGCTAGAAGAGTTTCGGAGTCACCTAGTGCAG", "binding signal": "7510 fluorescence intensity (a.u.)"}
{"sequence": "TATAATTTTAAACGGTGGGATTATATAAACATTGTGCAAGCGGAGTCACCTAGTGCAG", "binding signal": "14600 fluorescence intensity (a.u.)"}
{"sequence": "AAATTGACCTCACAATTAACACACATAAACACTATCTGCTCGGAGTCACCTAGTGCAG", "binding signal": "3640 fluorescence intensity (a.u.)"}
{"sequence": "GACCATGCAGCAATCAACCCCAATCAAACACATGCTTTACCGGAGTCACCTAGTGCAG", "binding signal": "15500 fluorescence intensity (a.u.)"}
{"sequence": "TCAAGACAGGTAATCACTTGATCTGTCTTTGTTTGAAATCCGGAGTCACCTAGTGCAG", "binding signal": "13600 fluorescence intensity (a.u.)"}
{"sequence": "AAAATTATTGAATTGTTGGGATCTGAGGGGATCCGCCGGACGGAGTCACCTAGTGCAG", "binding signal": "5330 fluorescence intensity (a.u.)"}
{"sequence": "CCCTTTGACAGATTAGGTGTGAGCGTGTGTGTGGACAGTACGGAGTCACCTAGTGCAG", "binding signal": "43200 fluorescence intensity (a.u.)"}
{"sequence": "GTACAGATAATAAATTAATGTAGAGCCTTCTGTAGCATCACGGAGTCACCTAGTGCAG", "binding signal": "7660 fluorescence intensity (a.u.)"}
{"sequence": "TTAAACTGACTGACCTCCAGTTGGTTTTGTTTAATGCACACGGAGTCACCTAGTGCAG", "binding signal": "19500 fluorescence intensity (a.u.)"}
{"sequence": "TTTAGACAACCTAATTAATTATCTAGGGTGCCAATGGAGACGGAGTCACCTAGTGCAG", "binding signal": "25300 fluorescence intensity (a.u.)"}
{"sequence": "CTTAAATTACATACTAATTTCTTTTCACAGAGATGCAATCCGGAGTCACCTAGTGCAG", "binding signal": "24400 fluorescence intensity (a.u.)"}
{"sequence": "AGTTCTATTTTAATTGACGTTTTGGATAATGACAAATCTTCGGAGTCACCTAGTGCAG", "binding signal": "6950 fluorescence intensity (a.u.)"}
{"sequence": "TGACCCAAGCAATTAGCAGCTAATAGCTGATATGTATAGTCGGAGTCACCTAGTGCAG", "binding signal": "3900 fluorescence intensity (a.u.)"}
{"sequence": "GAAAATATTGATTATGATGATAATCTTATCAAACACCAAACGGAGTCACCTAGTGCAG", "binding signal": "35400 fluorescence intensity (a.u.)"}
{"sequence": "AAAATTAACATTCATAGATGAGAAATGGCCATAGGCCTCACGGAGTCACCTAGTGCAG", "binding signal": "4830 fluorescence intensity (a.u.)"}
{"sequence": "CCAAATCCAATAAATTTGCAATGCATTCTTCTTGCAGTTCCGGAGTCACCTAGTGCAG", "binding signal": "3740 fluorescence intensity (a.u.)"}
{"sequence": "AACAAATCATGATCCTTGAGTAGCCACATTATTTTGCTGACGGAGTCACCTAGTGCAG", "binding signal": "4940 fluorescence intensity (a.u.)"}
{"sequence": "GCCAATAAAATAATTGCTTACTATACTATTAATATATGGTCGGAGTCACCTAGTGCAG", "binding signal": "3780 fluorescence intensity (a.u.)"}
{"sequence": "ATAATTAATTCCCTCCTAAACCCTAGCATTAATTTGACACCGGAGTCACCTAGTGCAG", "binding signal": "18600 fluorescence intensity (a.u.)"}
{"sequence": "CAGATTTTGATAGGTTTGAACTATCTACACCAGCGGAACGCGGAGTCACCTAGTGCAG", "binding signal": "8340 fluorescence intensity (a.u.)"}
{"sequence": "CCCTGTGATATGTCTATTATATAAGATATCCTTTTAAAAGCGGAGTCACCTAGTGCAG", "binding signal": "3670 fluorescence intensity (a.u.)"}
{"sequence": "GTTTAATTCTGTCTGTATACTATACCATATCTTACCAGACCGGAGTCACCTAGTGCAG", "binding signal": "5010 fluorescence intensity (a.u.)"}
{"sequence": "ATCGAATTAACATGTAAACGTCATGTCAATACTACATAGGCGGAGTCACCTAGTGCAG", "binding signal": "6900 fluorescence intensity (a.u.)"}
{"sequence": "CAAAATTTGACAATACGAAAGTTCAACATTCCTAATACTACGGAGTCACCTAGTGCAG", "binding signal": "4730 fluorescence intensity (a.u.)"}
{"sequence": "GCAAATATGTAGAATTAATTATTCTTGATCTGTAGATGAACGGAGTCACCTAGTGCAG", "binding signal": "6730 fluorescence intensity (a.u.)"}
{"sequence": "AAATGAGTGACTCAATAATCTAGAAAATTTGTATCATGAGCGGAGTCACCTAGTGCAG", "binding signal": "3860 fluorescence intensity (a.u.)"}
{"sequence": "ATTTTATTGTTGCGGTTGCCAATCAACAACGACGTCATTTCGGAGTCACCTAGTGCAG", "binding signal": "3880 fluorescence intensity (a.u.)"}
{"sequence": "ATTGATGTGAGTTCAATCATGTTCCTGATCCATGGGGTTTCGGAGTCACCTAGTGCAG", "binding signal": "24900 fluorescence intensity (a.u.)"}
{"sequence": "TGCTGGATTGTATTGATGTGTGTGCTTACCTAGTATAAATCGGAGTCACCTAGTGCAG", "binding signal": "3580 fluorescence intensity (a.u.)"}
{"sequence": "TTTATCATGATTTCTTATATAGTTACCAAAATTTAGCAGCCGGAGTCACCTAGTGCAG", "binding signal": "5990 fluorescence intensity (a.u.)"}
{"sequence": "ACTCCTGATTACCGGACCAGTAATTCAGTACGGATTCTACCGGAGTCACCTAGTGCAG", "binding signal": "12800 fluorescence intensity (a.u.)"}
{"sequence": "CCCTAACTGGGACAAAATGATTATTTTAGTCTAACATACACGGAGTCACCTAGTGCAG", "binding signal": "21300 fluorescence intensity (a.u.)"}
{"sequence": "GAATGTGATTTAATCAAGAGCAAGGGATGAGGGAGGCCAGCGGAGTCACCTAGTGCAG", "binding signal": "19300 fluorescence intensity (a.u.)"}
{"sequence": "AATAAAATAATTTGACGAGAAGCGTACGTACATTGCAAAGCGGAGTCACCTAGTGCAG", "binding signal": "11700 fluorescence intensity (a.u.)"}
{"sequence": "GTTATTCCAACACCATCGGGCATCACTTGCCCGCAAAATTCGGAGTCACCTAGTGCAG", "binding signal": "4990 fluorescence intensity (a.u.)"}
{"sequence": "AATACTTAATTAATCACGTACTAATGGATCGCTCCGTTTTCGGAGTCACCTAGTGCAG", "binding signal": "28800 fluorescence intensity (a.u.)"}
{"sequence": "CGAAAATATAAATGTTGACTGAATGAGCTGTTGAACCAAACGGAGTCACCTAGTGCAG", "binding signal": "4440 fluorescence intensity (a.u.)"}
{"sequence": "ATGAGCTATTAGATTGGCTATAGATGAATTGGATCTAGTACGGAGTCACCTAGTGCAG", "binding signal": "16300 fluorescence intensity (a.u.)"}
{"sequence": "AACCAAATTAATCTGAAATTCCAAATTAATACTCCCTCCGCGGAGTCACCTAGTGCAG", "binding signal": "19500 fluorescence intensity (a.u.)"}
{"sequence": "GATTAACTGGGAACAGATAAGTATCTCTTAGTAAGAGGGTCGGAGTCACCTAGTGCAG", "binding signal": "16600 fluorescence intensity (a.u.)"}
{"sequence": "GTACTTATGATTATGCTAATCACAAGTGGGCCCTTAATTACGGAGTCACCTAGTGCAG", "binding signal": "21400 fluorescence intensity (a.u.)"}
{"sequence": "GATTGATTAATATCTCATGTCATATCATTTTGTCAATTTTCGGAGTCACCTAGTGCAG", "binding signal": "20800 fluorescence intensity (a.u.)"}
{"sequence": "TATATATATATATATATATATATATATATCCGTTCAAAATCGGAGTCACCTAGTGCAG", "binding signal": "8370 fluorescence intensity (a.u.)"}
{"sequence": "TTGATTGCTTTACTCATGGTCAGTATGATGCTCATACCTCCGGAGTCACCTAGTGCAG", "binding signal": "31000 fluorescence intensity (a.u.)"}
{"sequence": "TAAGTAGATCGAAAATGTTTCAATCATTTAAATCAGGCGTCGGAGTCACCTAGTGCAG", "binding signal": "4180 fluorescence intensity (a.u.)"}
{"sequence": "TTGTTAAAATTGATTTAGGCATCTATCGTCACAGTGAACACGGAGTCACCTAGTGCAG", "binding signal": "18000 fluorescence intensity (a.u.)"}
{"sequence": "GCTGATTTGTTTTACACTCCATTAGATTTGTTAAGCTATTCGGAGTCACCTAGTGCAG", "binding signal": "29200 fluorescence intensity (a.u.)"}
{"sequence": "ACGTACCAAATTATGTTGCGTCTAATATACCAAACTGGAGCGGAGTCACCTAGTGCAG", "binding signal": "3710 fluorescence intensity (a.u.)"}
{"sequence": "TCGTAACATACATTGACAATCAAGAGGAGCCATGGCATTGCGGAGTCACCTAGTGCAG", "binding signal": "14000 fluorescence intensity (a.u.)"}
{"sequence": "TTACATTCAATGGAATTAATTTAGTGCAGTAGATATTGATCGGAGTCACCTAGTGCAG", "binding signal": "4770 fluorescence intensity (a.u.)"}
{"sequence": "TATATATATATATATATTGCGAGGATTGTTATAATAAAAGCGGAGTCACCTAGTGCAG", "binding signal": "9860 fluorescence intensity (a.u.)"}
{"sequence": "CTGATATTACCAAATTTGGTCGTTAACAGTTGTCAATGTCCGGAGTCACCTAGTGCAG", "binding signal": "5750 fluorescence intensity (a.u.)"}
